Test results as given in PubChem BioAssay AID588342 (National Center for Advancing Translational Sciences (NCATS), 2011).
In all, about 360,000 compounds went through this assay and about 25,000 (6.9%) were called active. Inconclusive results, whose numbers are uncertain, are shown with a selection of clear calls. Calls follow the shape of the dose curve; as a rule, active = well fitted inhibition curve with a large enough effect; inconclusive = small, poorly fitted or top-dose-only effect; inactive = flat fitted curve, though single readings scatter. Potencies beside an inconclusive call are fits to weak or partial responses and may not hold up.

biological target: Luciferin 4-monooxygenase (Photinus pyralis) (UniProt P08659); experiment: qHTS profiling assay for firefly luciferase inhibitor/activator using purifed enzyme and Km concentrations of substrates (counterscreen for miR-21 project); details: purified FLuc, luminescence inhibition; series mostly up to 57.5 µM; also: nearly all actives have a fitted effect of over 55% in size
Summary of the method: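 Biochemical qHTS of compounds, final roughly 60 µM downward over six points, against 10 nM purified firefly luciferase using Km concentrations of substrates (10 uM D-luciferin, 10 uM ATP) in Tris acetate pH 7.5 buffer; luminescence output.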
Potency is read from the fitted curve at half-maximal effect; tags tell the direction and shape of the fitted curve.

UniProt P08659, sequence (P08659 whole entry, looked up): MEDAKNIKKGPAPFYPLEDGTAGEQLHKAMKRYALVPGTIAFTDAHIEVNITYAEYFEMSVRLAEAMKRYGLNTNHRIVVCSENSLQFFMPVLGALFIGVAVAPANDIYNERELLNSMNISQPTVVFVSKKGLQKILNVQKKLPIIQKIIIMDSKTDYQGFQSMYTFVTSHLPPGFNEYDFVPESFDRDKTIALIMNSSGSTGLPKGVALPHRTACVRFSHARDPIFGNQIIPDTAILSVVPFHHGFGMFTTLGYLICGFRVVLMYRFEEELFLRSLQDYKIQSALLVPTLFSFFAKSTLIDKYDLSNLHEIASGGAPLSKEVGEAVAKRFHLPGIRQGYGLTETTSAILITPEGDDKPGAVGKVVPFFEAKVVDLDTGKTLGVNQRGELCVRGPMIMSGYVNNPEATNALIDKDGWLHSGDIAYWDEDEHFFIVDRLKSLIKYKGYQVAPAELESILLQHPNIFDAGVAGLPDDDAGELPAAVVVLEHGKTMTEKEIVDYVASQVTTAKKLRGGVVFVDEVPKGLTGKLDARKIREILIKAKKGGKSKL

Compound | Potency
Cn1c(=O)cc(C(=O)N/N=C/c2ccc(Cl)cc2)[nH]c1=O | active: 12 µM
CC(=O)Nc1ccc(N=Cc2c(O)c3ccccc3oc2=O)cc1 | inconclusive: 2.69 µM [inhibitor, partial curve, poor fit]
O=C(CCC1CCCC1)Nc1ccccc1-c1ccccc1 | inactive
COc1ccccc1-n1c(=O)c2c3c(sc2n2c(=S)[nH]nc12)CCC3 | inconclusive: 37.9 µM [inhibitor, partial curve, poor fit]
CN(C(=O)CSc1nnc(-c2cccs2)n1C1CC1)C1CCS(=O)(=O)C1 (stereo not given) | inactive
CCOC(=O)C1CCN(C(=O)CCCn2nc(C)c3c(C)n(-c4ccc(C)cc4)nc3c2=O)CC1 | inactive
O=c1cc(-c2ccccc2)nc2cc(-c3ccc(F)cc3)[nH]n12 | inconclusive: 3.38 µM [inhibitor, full curve]
C=C1CCN([C@H](C(=O)NCc2ccco2)C(C)C)S(=O)(=O)c2ccccc21 | inactive
O=C(NCC1CCCO1)c1cc2ccccc2oc1=O (stereo not given) | inconclusive: 30.1 µM [inhibitor, single point]
C#CCOCCOCCOCCNc1nc(N2CCN(C(=O)CCCCCCCCCCNC(=O)[C@H](CCCCN)n3cc(C[C@@H](C)CC)nn3)CC2)nc(N2CCN(C(=O)CCCCCCCCCCNC(=O)[C@H](CCCN=C(N)N)n3cc(C[C@@H](C)CC)nn3)CC2)n1 | inconclusive: 37.9 µM [inhibitor, single point]
CCn1c(=O)n(CC)c2cc(N3CCCC3)c(NC(=O)c3ccccc3OC)cc21 | inactive
Cc1cccc(-c2nnc3sc(-c4ccccc4C)nn23)c1 | inconclusive: 26.9 µM [inhibitor, single point]
N#Cc1c(SCC(=O)Nc2ccc(Cl)cc2Cl)sc2c(O)cc(=O)[nH]c12 | inconclusive: 42.6 µM [inhibitor, partial curve, poor fit]
CN(C)/C=N/C(=S)Nc1ccccc1 | inconclusive: 37.9 µM [inhibitor, partial curve, poor fit]
CCn1c(SCC(=O)Nc2ccc3c(c2)OCO3)nnc1-c1cnccn1 | inactive
CCS(=O)(=O)c1ccc2oc(Nc3ccccc3Br)nc2c1 | active: 9.53 µM
CCSc1nsc(NC(=O)Nc2ccccc2OC)n1 | inconclusive: 16.9 µM [inhibitor, partial curve]
COCCCN1C(=O)C2C(C(=O)Nc3cccc(Cl)c3)C3C=CC2(O3)C1C(=O)NC1CCCCC1 (stereo not given) | inactive
CCOc1cc(NC(=S)NCCOC)c(OCC)cc1NC(=O)c1ccco1 | inactive
CCOc1ccc(OCCSc2nc(N)cc(=O)[nH]2)cc1 | inconclusive: 26.9 µM [inhibitor, single point]
COc1ccc2c(c1)-c1nc(NC(=O)c3ccccc3F)sc1CC2 | inconclusive: 10.7 µM [inhibitor, partial curve]
COC(=O)c1ccc(CO/N=C2\CCCc3nonc32)cc1 | inconclusive: 23.9 µM [inhibitor, partial curve, poor fit]
CCN1/C(=C2\C(=O)N(C)C(=S)N2C)C=Cc2cc(C)ccc21 | inconclusive: 16.9 µM [inhibitor, single point]

Compound | Potency
CCCOc1cccc(C(=O)NCCNC(=O)c2ccc(C)nc2)c1 | inactive
Cn1cnnc1SCc1ccc(C(=O)N/N=C/c2cccs2)cc1 | active: 16.9 µM
Cc1ccc(C(=O)OCC(=O)NC2CCCC2)cc1C | inconclusive: 21.3 µM [inhibitor, partial curve]
Fc1ccccc1-c1cc2ccccc2cn1 | active: 4.78 µM
CC(=O)c1cccc(NC(=O)CSc2ccc(-c3ccccn3)nn2)c1 | inconclusive: 23.9 µM [inhibitor, partial curve]
O=C(NC1CCc2ccccc21)c1cc(COc2cncc(Cl)c2)on1 (stereo not given) | inconclusive: 30.1 µM [inhibitor, single point]
Cn1c2ccc(F)cc2c2nnc(SCC(=O)Nc3cccc(O)c3)nc21 | active: 9.53 µM
Cc1nnsc1C(=O)Oc1ccc(C(C)C)cc1 | inconclusive: 15.1 µM [inhibitor, partial curve]
Cc1cccc(NC(=O)CSc2nc(C3CCCC3)nc3c2c(=O)n(C)c(=O)n3C)c1C | inactive
Cc1ccc(NC(=O)C2CCCCC2)c(O)c1 | inconclusive: 26.9 µM [inhibitor, single point]
CCc1cccc(NC(=O)C2Cc3ccccc3N2C(=O)c2ccccc2)c1 (stereo not given) | inactive
Fc1ccc(-c2nn3c(C4COc5ccccc5O4)nnc3s2)cc1 (stereo not given) | inconclusive: 26.9 µM [inhibitor, partial curve, poor fit]
CN(C)S(=O)(=O)c1cccc(-c2nn(-c3ccccc3)cc2/C=C2\SC(=S)N(CC(=O)O)C2=O)c1 | inconclusive: 37.9 µM [inhibitor, partial curve, poor fit]
Cc1cc(Br)ccc1NCc1ccccn1 | inconclusive: 23.9 µM [inhibitor, partial curve, poor fit]
Cc1ccc2c(c1)c(CC(=O)Nc1ccc(C)c(F)c1)c(C(=O)O)n2C | inconclusive: 26.9 µM [inhibitor, single point]
Cc1ccc2nc(COc3ccccc3NC(=O)c3ccccc3F)cc(=O)n2c1 | inactive
Cc1ccc(-c2csc(NC(=O)CCNC(=O)c3ccccc3Cl)n2)cc1 | inconclusive: 37.9 µM [inhibitor, single point]
Cc1csc2c(N(C)CCO)ncnc12 | inconclusive: 21.3 µM [inhibitor, partial curve, poor fit]
Cn1c(C(C#N)C(=O)c2sc3ccccc3c2Cl)nc2ccccc21 (stereo not given) | inconclusive: 30.1 µM [inhibitor, partial curve, poor fit]
CCc1nn(CC(=O)NCCCN2CCN(CC)CC2)c(=O)c2cc3occc3n12 | inactive
O=C(O)CCC(=O)Nc1nc(-c2ccccc2)cs1 | inconclusive: 21.3 µM [inhibitor, single point]
Cc1c(CC(=O)NC(C)C)c(=O)oc2cc3c(cc12)CCC(C)(C)O3 | inconclusive: 21.3 µM [inhibitor, partial curve]
